From the supplement of paper PMC11417369
Some of the results follow.

What follows are sequences tested on PfAP2-HC AP2 domain (GST-tagged) (assay: gcPBM binding intensity (ln(normalized median fluorescence intensity)); higher = stronger DNA binding).
Method in brief: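 An Agilent 4 × 180k array of primer-extended double-stranded 36-bp intergenic genomic probes, with negative controls, was incubated for 1 h with GST-tagged P. falciparum DNA-binding domains expressed in E. coli. Alexa488 anti-GST antibody detected bound protein, scanned at 488 nm. Binding intensity is the highest Masliner-normalised natural-log median intensity across replicate spots of either probe orientation.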

Row | Sequence | gcPBM binding intensity (ln)
1 | TTTTTTTTTTTTTTTGGTACACATTTTGGTTAATGG [XGTACX_site5109] | 9.3
2 | ATAAAAAGGTTTAAAAAAAAAAAAAAAAAAAAAAAA [CACACA_negctrl_site412] | 8.72
3 | CTTGTGCTTTATAGGGTGCACATTTTGTTTTGGTAA [GTGCAC_site9899] | 9.61
4 | TTATTAATTATATATAGTACACATTTCACAGATGGG [XGTACX_site2349] | 9.49
5 | TGAACACATACATACACACACACAAAAAAAAAAAAA [CACACA_site392] | 10.3
6 | TTATTTATGAGGGTGACACACAAAAGAGTGTTAAGA [CACACA_site277] | 9.79
7 | AAAAAAAAACACGCATGTACATAAAAATAATCATAC [XGTACX_site1086] | 10.6
8 | AAATAAAATAAAATAAAATAAAATAAAATAAAATAA [XGTACX_negctrl_site142] | 9.39
9 | AATATCTGAAAATAAAGTACAAACATATTATAAATA [XGTACX_site5738] | 9.67
10 | TATTTCAAATGTTATGTGCACATATTAATCCTACTT [GTGCAC_site9738] | 9.8
11 | TACTTATTTGATTGGGTGCATATATATAGTATGTAT [GTGCAC_site9845] | 9.75
12 | AATAATAATTTAAAAAGTACATTCTAATAAACACGT [XGTACX_site1444] | 9.75
13 | ATTATTGCAATTTAATGTACATAATACAAATTTGCC [XGTACX_site2729] | 9.61
14 | AATGAATAAATAAACACACACACATATATATATATG [CACACA_site18] | 10.7
15 | TATACGTATACCTATACACACATATATATATATATA [CACACA_site1273] | 9.93
16 | AATAATAATAGAAACACACACACATTTTTAAGAATA [CACACA_site6692] | 10.5
17 | TGAAAAAAAAAATGCACACGCATACAGATAATATGT [CACACA_site4526] | 9.97
18 | GATGAAATATCATTACGTACACAATAGTTTGTATTT [XGTACX_site5143] | 9.88
19 | TCCTTAAAAAAACCTTAACACACATAAACTATAATT [CACACA_site9001] | 9.77
20 | TTTTTTTTTAAGTTTGCACACATGGAAGACAAAAAT [CACACA_site2505] | 9.67
21 | ATGAATGAATACGTTTTACACACTTGAATATAATTT [CACACA_site8237] | 9.7
22 | GTATATTGTACCATCACACATGTAAAACATAGATGT [CACACA_site5359] | 9.78

Row | Sequence | gcPBM binding intensity (ln)
23 | AACATAACAAAAAAAAAAAAAAATATATATATATAT [TGCATGCA_negctrl_site370] | 10.1
24 | TATTTCACAAAAAAAAAAAAAAAAAAGAAGCAAAAA [CACACA_negctrl_site1040] | 9.34
25 | TATTTTATATACAGTGGTACTTTTTTTTTTTTTTTT [XGTACX_site2475] | 9.58
26 | AAAAAAAAAAAAAAATCACACACAATATGAATTTAT [CACACA_site8100] | 9.83
27 | ACATATATATTATAAGCATGCATGAGAAAATTTTTA [TGCATGCA_site1054] | 9.87
28 | AATTGCTTCAAAATTAAACACACACTAATAAAAAAA [CACACA_site8855] | 9.93
29 | AAAAAAAAAAAAAAAACACACATTTGAAGAAAAAAA [CACACA_site7389] | 9.89
30 | TAATACATAAATAATGTGCACATGGAAATATATCTT | 10.2
31 | TGTAATACATGTTGTTGTACAATATCTTTAACTTTT [XGTACX_site1219] | 9.79
32 | TATTGTAAAAAAGCAAAATTTATCACCTCCTTATTT [CACACA_negctrl_site172] | 9.58
33 | TATAACTATGGGTGTACACATTAATCGTTTTTCTTT [CACACA_site5196] | 9.84
34 | TACACAAAAATAAACACACACACATATAAATAAATA [CACACA_site6599] | 10.4
35 | CCACTAAAGGCATATACACACATTTTTTAAATTGCC [CACACA_site2839] | 9.77
36 | ATTTATATAAAATTAAAATAATACAAATTTATTCAT [GTGCAC_negctrl_site305] | 9.27
37 | TTTTCGCTTTTATAAAATTATATGAAAAAACTAAAA [XGTACX_negctrl_site139] | 9.15
38 | TTATGGAAAAATATAACACACAATGATTTTTTATAA [CACACA_site1831] | 9.64
39 | TTTTTTACATTCTGCACACAATTTATTTTTTTTTTT [CACACA_site4188] | 10
40 | CAAATTTTTAAAAATGCATGTTCATCCATCCCATAT [TGCATGCA_site467] | 9.56
41 | TTTGTATGATCATAAAGTACTAATTTACATTCAGCA [XGTACX_site8596] | 9.49
42 | ATATATATATATAGAAGTACTCTTATATATTTTATA [XGTACX_site1384] | 9.54
43 | AAAAAAAAAAAAAATACACACACATAAAAAAAAAAA [CACACA_site8555] | 10.9
44 | GATATGGAATATATGTGTACATATATATATATTATA [XGTACX_site1724] | 9.77

Row | Sequence | gcPBM binding intensity (ln)
45 | GTAGAATCAGTATTCACACATAAATGTATCCAAATG [CACACA_site5395] | 9.6
46 | TTTTCATTCTTATATAAATATTATTTTATATAAAAT [GTGCAC_negctrl_site674] | 9.4
47 | ATATATGAAAATATATGTACACAACATATAAAATAG [XGTACX_site5132] | 9.94
48 | AATTATATACCATGCACACAAATATTCATACAGGAA [CACACA_site4057] | 9.97
49 | AAAATATATCAAAACACACTCACATATAATACTTAC [CACACA_site6031] | 10.4
50 | TATATACTTATATACTGTACTCATCATCTTTTAAAG [XGTACX_site6099] | 9.45
51 | TAATATATCTATAATACACACTATTCTAATCACATA [CACACA_site6731] | 9.65
52 | TTTTTTTTTTTTTAAACATGCAAAATATATAATTTT [TGCATGCA_site633] | 9.26
53 | TAGAAACTATGTAATGCACACCAAAATAAAATTATT [CACACA_site8578] | 9.89
54 | TTTTGGATACTTCATTTGTCCTGTTTTTTTTTTTTA [CACACA_negctrl_site399] | 9.71
55 | ATATACTATTAACCACATATGTGTGTTAATTTATAT [GTGCAC_negctrl_site315] | 9.79
56 | TTGAACCCCACTAACACACACACGCACGCTCAGAAA [CACACA_site2983] | 10.4
57 | ATATTAATTATAACTTGTACGTAAAAGGAAAACAAT [XGTACX_site3269] | 9.76
58 | TGCTATTTCATATTCTGTACTAAAACAAGATAATAA [XGTACX_site3852] | 9.31
59 | AACACACACATATATATATATATATATATATATATA [GTGCAC_negctrl_site573] | 10.4
60 | TTTTTAATATTGTATGCATGTCGTAATAAAAAATTT [TGCATGCA_site259] | 9.45
61 | ATAATAAACATATATGTACACACATATACATATATA [CACACA_site8924] | 9.83
62 | TATACATTTATGTACACACACATATAGGTATATTTA [CACACA_site7408] | 10
63 | AAAATATAATATATTACACACATATATTTTATAAGT [CACACA_site668] | 9.82
64 | TTTTTTTAACGGTGTGCACACAATATACAGAAAAAA [CACACA_site1415] | 10.3
65 | ATTATATATATTTATGCACACAAAATATATTATATA [CACACA_site9244] | 9.64
66 | TATATACATTTATATACACACCTATATTTATTTATA [CACACA_site7014] | 9.81

Row | Sequence | gcPBM binding intensity (ln)
67 | TATATTGAAAATAAAACATGCAATCACTCATACATA [TGCATGCA_site248] | 9.63
68 | CAACAATTTCGTCATACACACATTCAGAATCTATAT [CACACA_site7171] | 9.84
69 | ATGTACCTATTTCATACACACACACCCACAAACAAA [CACACA_site8232] | 10.4
70 | TTTAAACGTTATATAGTGCATGTCATATTTTATTAT | 9.76
71 | TACGTAATAATATGCACACAAATAAACTTTATAAAT [CACACA_site3501] | 9.97
72 | CAAAAAAGTAAAACGTGTACATATATACATAAAAAT [XGTACX_site5639] | 9.86
73 | CTTTTTTATATCTCTACACACATTTATAACAATTTG [CACACA_site1398] | 9.87
74 | TATGTTGGTTCTTTTAGTACATAATTACTAAATGTA [XGTACX_site8616] | 9.66
75 | AAAACATACATATATACACACATATATATATATATA [CACACA_site1852] | 10.3
76 | CAAACTACAAAATTTCGTACGCATATATTTCAAGTA [XGTACX_site5154] | 9.67
77 | TAATTTCTTATGTGCTATCTTATATAGAATTAATTT [CACACA_negctrl_site1726] | 9.39
78 | TATAAAAAATAAAATACACACACATATATATATATA [CACACA_site8365] | 10.6
79 | TGCACAAAATTATGCACACACCTAAAATTAATTTTT [CACACA_site5596] | 9.8
80 | GGCAATGATTTTAGGTGTACTTAAAAATCAAATTAA [XGTACX_site8587] | 9.44
81 | ATTCTAATCATATACACACCCATATATATATATATA [CACACA_site1774] | 9.88
82 | TATATATTAATATGCACACACAAGAAGTAATTATAA [CACACA_site3193] | 10.2
83 | ATTATATAACAAAATAGTACATATATTTATTACATC [XGTACX_site336] | 9.58
84 | GGCATACACGGACACACACACACACCGACATATATA [CACACA_site4493] | 11.5
85 | AGCAGTCAGCAGGACAGTACACAGTAGCCAGGAAAT [XGTACX_site4877] | 9.52
86 | AAAAAAAAAATTTAGGTGCATACAAATAAATTATAT [GTGCAC_site9521] | 9.69
87 | TTATTCTAAAAAGGGTGTACACAAACGAATGGAAAA [XGTACX_site5662] | 9.84
88 | ATGGCTAAAAGTTGCACACACACAAAAAAAAAAAAA [CACACA_site3289] | 10.2
